# Among all 270,000 compounds or so, about 620 (0.23%) were called active. The shares of active, inactive and inconclusive entries below differ from those in the screen. The call rests on the fitted dose curve; in most records, active means well fitted inhibition curve with a large enough effect in the polarisation, with a control signal flat (not every such curve was filed as active); inconclusive means small, poorly fitted or top-dose-only effect, or effect the other way, or a change in a side signal; inactive means no such curve, though single readings can be large or run the other way; the % refers to the polarisation. Potencies beside an inconclusive call are fits to weak or partial responses and may not hold up. “Side channel” marks fits to a control or component signal instead of the main read-out.
# Molecular target: Menin (Homo sapiens) (UniProt O00255)
# UniProt O00255, sequence (O00255 whole entry, looked up): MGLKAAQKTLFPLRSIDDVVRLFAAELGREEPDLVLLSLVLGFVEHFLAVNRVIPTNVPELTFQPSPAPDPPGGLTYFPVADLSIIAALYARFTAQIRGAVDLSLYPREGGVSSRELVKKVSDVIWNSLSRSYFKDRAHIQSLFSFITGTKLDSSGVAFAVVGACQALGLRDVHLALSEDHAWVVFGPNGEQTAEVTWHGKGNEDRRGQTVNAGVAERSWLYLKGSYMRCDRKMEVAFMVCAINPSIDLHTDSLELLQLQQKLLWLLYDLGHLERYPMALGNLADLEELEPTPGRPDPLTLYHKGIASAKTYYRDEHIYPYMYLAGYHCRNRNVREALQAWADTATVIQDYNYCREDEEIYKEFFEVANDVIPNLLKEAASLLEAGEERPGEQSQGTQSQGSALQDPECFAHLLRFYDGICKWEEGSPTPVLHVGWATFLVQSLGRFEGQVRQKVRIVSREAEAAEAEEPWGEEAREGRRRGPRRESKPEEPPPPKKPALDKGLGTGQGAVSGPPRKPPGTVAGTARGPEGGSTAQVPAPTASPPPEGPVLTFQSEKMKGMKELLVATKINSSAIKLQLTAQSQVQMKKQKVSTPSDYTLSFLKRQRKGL
# Assay: qHTS Assay for Inhibitors Targeting the Menin-MLL Interaction in MLL Related Leukemias: Competition With Texas Red Labeled MLL-derived Mutant Peptide; on FP activity change, negative = inhibition: % of control where 0% means no effect
# Conditions: fluorescence polarization; FP activity change, negative = inhibition: at 61.6 µM (top of the series)
# Potency means the concentration at half of the fitted maximal effect; tags describe the fitted curve by direction and shape or compound fluorescence and quenching.
SMILES,Potency,"FP activity change, negative = inhibition"
CCCCOC(=O)c1ccc(NC(=O)c2cc(Cl)c(Cl)cc2C(=O)O)cc1,"inconclusive: 28.2 µM [quencher, side channel, single point]",
O=C(NC1CCCC1)c1cc(-c2ccc(Cl)c(Cl)c2)on1,"inconclusive: 28.2 µM [fluorescent, side channel, single point]",
CNC(=O)c1cc(S(=O)(=O)N2CC(C)OC(C)C2)ccc1N1CCOCC1 (stereo not drawn),,inactive: -1.22%
O=C(Nc1nnc(-c2ccc(F)cc2)o1)c1cc(Cl)sc1Cl,"inconclusive: 22.4 µM [quencher, side channel, partial curve]",
COc1ccc(-n2c(C)c(C(C)=O)c3cc(OC(C)=O)ccc32)cc1,,inactive: -23%
CCOC(=O)C1CCCN(CC(O)COCc2ccccc2OC)C1 (stereo not drawn),"inconclusive: 39.8 µM [inhibitor, single point]",
COc1ccc(CN(C)C(=O)c2sccc2-c2ccccc2)c(OC)c1,"inconclusive: 35.5 µM [fluorescent, side channel, single point]",
Cc1ccccc1CN(C)C(C)C(=O)Nc1ccccc1F (stereo not drawn),"inconclusive: 3.98 µM [fluorescent, side channel, full curve, poor fit]",
O=C(Nc1ccc(Cl)cn1)c1cccc(OCc2ccccc2)c1,"inconclusive: 17.8 µM [quencher, single point]",
Cc1nc(C)c(C(=O)N(c2ccc(C)c(C)c2)C(C(=O)NCc2ccco2)c2ccccc2)s1 (stereo not drawn),"inconclusive: 3.55 µM [inhibitor, partial curve]",
O=C(Nc1ccc(Cl)cc1)c1cccc(N2C(=O)C3C4CCC(C4)C3C2=O)c1 (stereo not drawn),"inconclusive: 8.91 µM [quencher, side channel, single point]",
Cc1ccccc1-c1nc(C#N)c(N2CCC(C)CC2)o1,"inconclusive: 39.8 µM [fluorescent, side channel, single point]",
[O-]/C(=C(\C(=S)NCc1ccc2c(c1)OCO2)[n+]1ccccc1)c1ccc(Cl)s1,"inconclusive: 25.1 µM [quencher, side channel, single point]",
NC(=O)c1cccnc1Nc1cccc([N+](=O)[O-])c1,"inconclusive: 12.6 µM [quencher, side channel, partial curve]",
COc1cccc([C@@H]2Oc3ccc(Br)cc3C[C@H]2OC(=O)NS(=O)(=O)c2ccc(C)cc2)c1,,inactive: 1.73%
CCn1c(NC(=O)c2cccc(Cn3cc(Cl)cn3)c2)nc2ccccc21,"inconclusive: 17.8 µM [quencher, side channel, partial curve]",
O=C(COC(=O)Cc1ccc(S(=O)(=O)N2CCOCC2)s1)NCc1ccc(Cl)cc1,"inconclusive: 31.6 µM [quencher, side channel, single point]",
CCn1cc(CNCc2cn(C)nc2-c2ccc(C3CCCCC3)cc2)cn1,"inconclusive: 3.98 µM [fluorescent, side channel, partial curve]",
O=C(O)CCCN(Cc1cccc(Br)c1)S(=O)(=O)c1ccc(Br)cc1,"inconclusive: 28.2 µM [quencher, side channel, single point]",
C/C(=C\C(=O)Nc1nccs1)c1ccccc1,"inconclusive: 6.31 µM [quencher, side channel, partial curve]",

SMILES,Potency,"FP activity change, negative = inhibition"
CCn1c(SCC(=O)Nc2sc3c(c2C#N)CCC(C(C)(C)C)C3)nnc1-c1ccco1 (stereo not drawn),"inconclusive: 2.82 µM [inhibitor, partial curve]",
O=C(/C=C/c1ccc(O)c(O)c1)c1ccc(O)cc1O,,inactive: 53.8%
O=C(c1ccc(CSc2ccccc2)cc1)N1CCN(c2ccccc2)CC1,"inconclusive: 17.8 µM [fluorescent, side channel, partial curve]",
C/C(Cc1ccccc1)=N\NC(=O)CCCCCC(=O)N/N=C(\C)Cc1ccccc1,"inconclusive: 10 µM [inhibitor, single point]",
CCCCCCCCNC(=O)C(CCC(=O)OCc1ccccc1)NC(C)=O (stereo not drawn),"inconclusive: 35.5 µM [fluorescent, side channel, single point]",
COc1ccc(CN2CCNC(=O)C2CC(=O)NCc2csc(C(C)C)n2)c(OC)c1 (stereo not drawn),"inconclusive: 28.2 µM [fluorescent, side channel, partial curve]",
COC(=O)C1=CN(Cc2ccc(OC)cc2)C=C(C(=O)OC)C1c1cccs1,,inactive: -2.35%
O=C(CSc1nnnn1-c1ccccc1)Nc1nsc(-c2ccc(Cl)cc2)n1,"inconclusive: 39.8 µM [inhibitor, single point]",
CCNS(=O)(=O)c1c(C)cc(C)c(N(C)S(=O)(=O)c2ccccc2)c1C,"inconclusive: 10 µM [inhibitor, partial curve]",
COc1ccc(CNc2cccc3[nH]c(C(F)(F)F)nc23)cc1OC,"inconclusive: 25.1 µM [quencher, side channel, partial curve]",
COc1ccc(NC(=O)Cn2nnc(C(=O)Nc3ccc(F)c(Cl)c3)c2N)cc1,"inconclusive: 35.5 µM [fluorescent, side channel, single point]",
CO/N=C/CC(=O)c1ccc([N+](=O)[O-])c(CS(=O)(=O)c2ccc(Cl)cc2)c1,"inconclusive: 3.16 µM [quencher, side channel, partial curve]",
Cn1c(=O)n(C)c2cc(S(=O)(=O)Nc3cc(Cl)ccc3O)ccc21,"inconclusive: 39.8 µM [quencher, side channel, single point]",
O=C(Nc1nccs1)c1ccc(-c2ccc(Cl)cc2)o1,"inconclusive: 11.2 µM [quencher, side channel, partial curve]",
NNC(=O)CNC(c1ccccc1)c1cc(Cl)ccc1NC(=O)c1ccccc1 (stereo not drawn),"inconclusive: 12.6 µM [quencher, side channel, partial curve, poor fit]",
O=C(Nc1ccc(Nc2ccccc2)cc1)c1cc([N+](=O)[O-])ccc1Cl,"inconclusive: 15.8 µM [quencher, side channel, partial curve]",
O=C(O)/C=C\C(=O)Nc1ccccc1C#Cc1ccc(Br)cc1,"inconclusive: 20 µM [quencher, side channel, single point]",
NNc1nc2c(Cl)c(Cl)ccc2s1,"inconclusive: 10 µM [quencher, partial curve]",
COCCCNC(=O)CCCOc1ccccc1,"inconclusive: 8.91 µM [inhibitor, single point]",
CO[C@@H]1COC(=O)C/C=C\[C@H](C)COC(=O)[C@H](Cc2ccccc2)NC(=O)C/C=C\[C@H]1C,,inactive: -16.8% [at 11.7 µM]

SMILES,Potency,"FP activity change, negative = inhibition"
CCCN(c1nc(C)cc(OC)n1)S(=O)(=O)c1ccccc1,"inconclusive: 5.01 µM [inhibitor, single point]",
COc1ccc(-n2cc(-c3ccccc3)c3c(N4CCN(CCO)CC4)ncnc32)cc1,"inconclusive: 25.1 µM [fluorescent, side channel, partial curve]",
CCN(CC)S(=O)(=O)c1ccc(NN)nc1,"inconclusive: 12.6 µM [quencher, side channel, partial curve]",
Cc1ccccc1CSc1nnc(-c2cccs2)n1Cc1ccco1,"inconclusive: 3.55 µM [inhibitor, single point]",
O=c1cnnc(Nc2ccccc2)[nH]1,"inconclusive: 7.08 µM [inhibitor, partial curve]",
N#Cc1c(Cl)nc(SCc2ccccc2)nc1-c1ccccc1,"inconclusive: 20 µM [quencher, side channel, partial curve]",
Cc1cc(SCC(=O)OCC(=O)NCC2CCCO2)c(C)cc1Br (stereo not drawn),"inconclusive: 6.31 µM [fluorescent, side channel, full curve]",
COc1cccc(-c2cc3c(=O)n(-c4ccccc4)c(=S)[nH]c3s2)c1,"inconclusive: 28.2 µM [quencher, side channel, single point]",
COc1ccc(NC(=O)c2ccc([N+](=O)[O-])s2)c([N+](=O)[O-])c1,"inconclusive: 12.6 µM [quencher, side channel, partial curve]",
Cc1ccc(S(=O)(=O)Nc2ccc3oc(=O)sc3c2)c(C)c1,"inconclusive: 3.98 µM [quencher, side channel, full curve]",
Cc1nc2ccc(C(=O)N/N=C/c3cc([N+](=O)[O-])ccc3O)cc2[nH]1,"inconclusive: 20 µM [quencher, partial curve]",
CC(=O)NNc1ncnc2c1cnn2-c1ccc(C)c(Cl)c1,"inconclusive: 8.91 µM [inhibitor, partial curve]",
O=C(N/N=C/c1ccc(Cl)cc1)c1cc2c(s1)-c1ccccc1CC2,"inconclusive: 39.8 µM [inhibitor, single point]",
CCN(CC(=O)Nc1ccc(C)c(S(=O)(=O)N(C)C)c1)Cc1ccccc1,"inconclusive: 14.1 µM [fluorescent, side channel, partial curve, poor fit]",
O=C(CCc1c[nH]c2ccccc12)NCc1ccc2c(c1)OCO2,"inconclusive: 17.8 µM [quencher, side channel, partial curve]",
Cc1nc2c(C(=O)NCc3ccc4c(c3)OCO4)c[nH]n2c(=O)c1Cl,,inactive: 92.3%
CSC1=C(C#N)C(CC(C)C)C2=C(CCCC2=O)N1 (stereo not drawn),,inactive: -1.25%
Cc1ccc(NC(=O)COC(=O)CCc2nc3ccccc3n2-c2ccccc2)c(C)c1,"inconclusive: 14.1 µM [fluorescent, side channel, partial curve]",

# Reference: PubChem BioAssay AID1768 (National Center for Advancing Translational Sciences (NCATS), 2009)
